Some of the results follow. Sequences were assembled here from the parent chain. Inactive controls read about 0.05.

8 variants from the supplement of paper PMC12217912 can be followed below.

B1: TEV protease; numbered along this chain (parent)
chain: MGESLFKGPRDYNPISSSICHLTNESDGHTTSLYGIGFGPFIITNKHLFRRNNGTLVVQSLHGVFKVKDTTTLQQHLVDGRDMIIIRMPKDFPPFPQKLKFREPQREERICLVTTNFQTKSMSSMVSDTSCTFPSGDGIFWKHWIQTKDGQCGSPLVSTRDGFIVGIHSASNFTNTNNYFTSVPKNFMELLTNQEAQQWVSGWRLNADSVLWGGHKVFMVKPEEPFQPVKEATQL

Variants of B1 are the subject of the experiment. The experiment in a line: raw area under fraction-flipped curve 0-4 h after induction (AUC4h, not background-subtracted), DNA-recorder readout of cleavage of the substrate (dimensionless); higher = more cleavage of the substrate by the protease variant. The note with it: temperature: 34 °C; time window: 0-4 h after rhamnose induction. As to the method: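 In vivo DNA recorder in E. coli TOP10(DE3) ΔrhaA at 34 °C. Each TEVp single-site mutant (parent TEVp 0) is paired with a single-site variant of the 7-mer TEVs (canonical ENLYFQ|S). The substrate sits between flexible linkers in a Bxb1-sfGFP-TEVs-SsrA fusion, so cleavage stabilises Bxb1 and speeds flipping of a recombination array, read by NGS. The value is the raw area under the fraction-flipped curve over 0-4 h after rhamnose induction (AUC4h), with ≥20 reads per time point. It is not background-subtracted; inactive controls average about 0.047.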
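Also: Bxb1 expression induced with 0.2% (w/v) L-rhamnose at OD600 near 0.5, cultures sampled hourly, flipped fraction per protease–substrate barcode pair counted by paired-end Illumina sequencing.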

Regarding MGESLFKGPRDYNPISSSICHLTNESDGHTTSLYGIGFGPFIITNKHLFRRNNGTLVVQSLHGVFKVKDTTTLQQHLVDGRDMIIIRMPKDFPPFPQKLKFREPQRSERICLVTTNFQTKSMSSMVSDTSCTFPSGDGIFWKHWIQTKDGQCGSPLVSTRDGFIVGIHSASNFTNTNNYFTSVPKNFMELLTNQEAQQWVSGWRLNADSVLWGGHKVFMVKPEEPFQPVKEATQL [E107S], the “area with substrate ENLYAQS” value came out at 0.0802, the “area with substrate ENLYDQS” value was determined as 0.0638, the “area with substrate ENLYEQS” value came out at 0.0701 and the “area with substrate ENLYGQS” value stood at 0.0988. Moreover, the “area with substrate ENLYHQS” value is 0.0681, the “area with substrate ENLYIQS” value was 0.106, the “area with substrate ENLYKQS” value is 0.074 and the “area with substrate ENLYLQS” value amounted to 0.0768. Besides, the “area with substrate ENLYMQS” value was 0.0864, the “area with substrate ENLYPQS” value worked out at 0.0704, the “area with substrate ENLYQQS” value is 0.051 and the “area with substrate ENLYRQS” value is 0.067. Moreover, the “area with substrate ENLYSQS” value turned out to be 0.091, the “area with substrate ENLYTQS” value came to 0.082, the “area with substrate ENLYVQS” value was 0.0999 and the “area with substrate ENLYWQS” value is 0.0868. Further, the “area with substrate ENLYYQS” value turned out to be 0.0441.

With MGESLFKGPRDYNPISSSICHLTNESDGHTTSLYGIGFGPFIITNKHLFRRNNGTLVVQSLHGVFKVKDTTTLQQHLVDGRDMIIIRMPKDFPPFPQKLKFREPQREERICLVTTNFQTKSMSSMVSDTSCTFPSGDGIFWKHWIQTKDGQCGSPLVSTRDGFIVGIHSASNFTNTNNYFTSVPKNFMELLTNQEAQQWVSGERLNADSVLWGGHKVFMVKPEEPFQPVKEATQL [W203E], the “area with substrate ENLYAQS” value stood at 0.066, the “area with substrate ENLYDQS” value is 0.0584, the “area with substrate ENLYEQS” value turned out to be 0.0493 and the “area with substrate ENLYGQS” value amounted to 0.0529. In addition, the “area with substrate ENLYHQS” value was 0.0663, the “area with substrate ENLYIQS” value was determined as 0.0641, the “area with substrate ENLYNQS” value worked out at 0.0699 and the “area with substrate ENLYPQS” value amounted to 0.0632. The “area with substrate ENLYQQS” value came to 0.0743, the “area with substrate ENLYRQS” value came out at 0.0666, the “area with substrate ENLYSQS” value was found to be 0.0689 and the “area with substrate ENLYVQS” value was determined as 0.0759. Besides, the “area with substrate ENLYWQS” value was 0.0571.

With MGESLFKGPRDYNPISSSICHLTLESDGHTTSLYGIGFGPFIITNKHLFRRNNGTLVVQSLHGVFKVKDTTTLQQHLVDGRDMIIIRMPKDFPPFPQKLKFREPQREERICLVTTNFQTKSMSSMVSDTSCTFPSGDGIFWKHWIQTKDGQCGSPLVSTRDGFIVGIHSASNFTNTNNYFTSVPKNFMELLTNQEAQQWVSGWRLNADSVLWGGHKVFMVKPEEPFQPVKEATQL [N24L], the “area with substrate ENLYAQS” value came out at 0.0792, the “area with substrate ENLYCQS” value was found to be 0.0918, the “area with substrate ENLYDQS” value was determined as 0.0626 and the “area with substrate ENLYEQS” value was 0.0586. The “area with substrate ENLYGQS” value stood at 0.0672, the “area with substrate ENLYHQS” value worked out at 0.068, the “area with substrate ENLYIQS” value stood at 0.0998 and the “area with substrate ENLYKQS” value worked out at 0.0583. The “area with substrate ENLYLQS” value amounted to 0.0543, the “area with substrate ENLYMQS” value was 0.0832, the “area with substrate ENLYNQS” value came out at 0.0683 and the “area with substrate ENLYPQS” value worked out at 0.0536. Also, the “area with substrate ENLYQQS” value was 0.067, the “area with substrate ENLYSQS” value worked out at 0.0744, the “area with substrate ENLYTQS” value is 0.0655 and the “area with substrate ENLYVQS” value stood at 0.0864. The “area with substrate ENLYYQS” value came out at 0.0413.

For the variant MGESLFKGPRDYNPISVSICHLTNESDGHTTSLYGIGFGPFIITNKHLFRRNNGTLVVQSLHGVFKVKDTTTLQQHLVDGRDMIIIRMPKDFPPFPQKLKFREPQREERICLVTTNFQTKSMSSMVSDTSCTFPSGDGIFWKHWIQTKDGQCGSPLVSTRDGFIVGIHSASNFTNTNNYFTSVPKNFMELLTNQEAQQWVSGWRLNADSVLWGGHKVFMVKPEEPFQPVKEATQL [S17V], the “area with substrate ENLYAQS” value came to 0.0552, the “area with substrate ENLYCQS” value was 0.0886, the “area with substrate ENLYDQS” value turned out to be 0.0669 and the “area with substrate ENLYEQS” value was found to be 0.0579. The “area with substrate ENLYGQS” value was 0.067, the “area with substrate ENLYHQS” value was determined as 0.0681, the “area with substrate ENLYIQS” value is 0.112 and the “area with substrate ENLYKQS” value is 0.0615. The “area with substrate ENLYLQS” value worked out at 0.0738, the “area with substrate ENLYMQS” value turned out to be 0.0835, the “area with substrate ENLYNQS” value stood at 0.0719 and the “area with substrate ENLYPQS” value turned out to be 0.0665. The “area with substrate ENLYQQS” value was 0.064, the “area with substrate ENLYRQS” value is 0.053, the “area with substrate ENLYSQS” value was 0.0804 and the “area with substrate ENLYTQS” value is 0.0708. In addition, the “area with substrate ENLYVQS” value was found to be 0.117, the “area with substrate ENLYWQS” value was 0.0713 and the “area with substrate ENLYYQS” value was 0.066.

Take MGESLFKGPRDYNPISSSICHLTNESDGHTTSLYGIGFGPFIITNKHLFRRNNGTLVVQSLHGVFKVKDTTTLQQHLVDGRDMIIIRMPKDFPPFPQKLKFREPQREERICLVTTNFQTKSMSDMVSDTSCTFPSGDGIFWKHWIQTKDGQCGSPLVSTRDGFIVGIHSASNFTNTNNYFTSVPKNFMELLTNQEAQQWVSGWRLNADSVLWGGHKVFMVKPEEPFQPVKEATQL [S124D]: the “area with substrate ENLYAQS” value came to 0.0524, the “area with substrate ENLYEQS” value came out at 0.0682, the “area with substrate ENLYHQS” value was determined as 0.0682 and the “area with substrate ENLYIQS” value is 0.12. Also, the “area with substrate ENLYKQS” value worked out at 0.0546, the “area with substrate ENLYMQS” value amounted to 0.0798, the “area with substrate ENLYNQS” value was determined as 0.0634 and the “area with substrate ENLYPQS” value came to 0.0633. Further, the “area with substrate ENLYRQS” value came out at 0.0802 and the “area with substrate ENLYVQS” value came to 0.115.

For MGESLFKGPRDYNPISSSICHLTNESDPHTTSLYGIGFGPFIITNKHLFRRNNGTLVVQSLHGVFKVKDTTTLQQHLVDGRDMIIIRMPKDFPPFPQKLKFREPQREERICLVTTNFQTKSMSSMVSDTSCTFPSGDGIFWKHWIQTKDGQCGSPLVSTRDGFIVGIHSASNFTNTNNYFTSVPKNFMELLTNQEAQQWVSGWRLNADSVLWGGHKVFMVKPEEPFQPVKEATQL [G28P], the “area with substrate ENLYAQS” value came out at 0.0769, the “area with substrate ENLYDQS” value was 0.0459, the “area with substrate ENLYEQS” value came out at 0.0543 and the “area with substrate ENLYGQS” value was found to be 0.0564. For the same variant, the “area with substrate ENLYHQS” value was determined as 0.0539, the “area with substrate ENLYIQS” value worked out at 0.0771, the “area with substrate ENLYKQS” value is 0.0587 and the “area with substrate ENLYMQS” value was determined as 0.0528. In addition, the “area with substrate ENLYPQS” value stood at 0.0838, the “area with substrate ENLYQQS” value came out at 0.051, the “area with substrate ENLYVQS” value stood at 0.0702 and the “area with substrate ENLYWQS” value was 0.0631.

With MGESLFKGPRDYNPISSSICHLTNESDGHTTSLYGIGFGPFIITNKHLFRRNNGTLVVQSLHGVFKVKDTTTLQQHLVDGRDMIIIRMPKDFPPFPQKLKFREPQREERICLVTTNFQTKSMSSMVSDTSCTFPSGDGMFWKHWIQTKDGQCGSPLVSTRDGFIVGIHSASNFTNTNNYFTSVPKNFMELLTNQEAQQWVSGWRLNADSVLWGGHKVFMVKPEEPFQPVKEATQL [I139M], the “area with substrate ENLYAQS” value came out at 0.0601, the “area with substrate ENLYCQS” value was determined as 0.0813, the “area with substrate ENLYDQS” value is 0.0762 and the “area with substrate ENLYEQS” value came out at 0.06. Further, the “area with substrate ENLYGQS” value was determined as 0.0577, the “area with substrate ENLYHQS” value amounted to 0.0755, the “area with substrate ENLYIQS” value was found to be 0.108 and the “area with substrate ENLYKQS” value came to 0.0437. The “area with substrate ENLYMQS” value stood at 0.0722, the “area with substrate ENLYNQS” value is 0.0675, the “area with substrate ENLYPQS” value was determined as 0.0727 and the “area with substrate ENLYRQS” value was found to be 0.0582. Besides, the “area with substrate ENLYSQS” value is 0.0799, the “area with substrate ENLYVQS” value was determined as 0.13, the “area with substrate ENLYWQS” value came to 0.0833 and the “area with substrate ENLYYQS” value was 0.066.

Consider MGESLFKGPRDYNPISSSICHLTNESDGHTTSLYGIGLGPFIITNKHLFRRNNGTLVVQSLHGVFKVKDTTTLQQHLVDGRDMIIIRMPKDFPPFPQKLKFREPQREERICLVTTNFQTKSMSSMVSDTSCTFPSGDGIFWKHWIQTKDGQCGSPLVSTRDGFIVGIHSASNFTNTNNYFTSVPKNFMELLTNQEAQQWVSGWRLNADSVLWGGHKVFMVKPEEPFQPVKEATQL [F38L], for which the “area with substrate ENLYAQS” value is 0.0666, the “area with substrate ENLYCQS” value is 0.0793, the “area with substrate ENLYDQS” value was determined as 0.0617 and the “area with substrate ENLYEQS” value was 0.0616. The “area with substrate ENLYGQS” value was determined as 0.0662, the “area with substrate ENLYHQS” value came to 0.06, the “area with substrate ENLYIQS” value amounted to 0.127 and the “area with substrate ENLYKQS” value stood at 0.0683. Also, the “area with substrate ENLYMQS” value was determined as 0.0717, the “area with substrate ENLYNQS” value is 0.0623, the “area with substrate ENLYPQS” value amounted to 0.0653 and the “area with substrate ENLYQQS” value came out at 0.0591. In addition, the “area with substrate ENLYRQS” value worked out at 0.0561, the “area with substrate ENLYSQS” value is 0.0674, the “area with substrate ENLYTQS” value was 0.068 and the “area with substrate ENLYVQS” value came to 0.126. Further, the “area with substrate ENLYWQS” value was determined as 0.0758 and the “area with substrate ENLYYQS” value was determined as 0.0588.
